Reference: PubChem BioAssay AID1508642 (National Center for Advancing Translational Sciences (NCATS), 2021)
The campaign covered roughly 43,000 compounds. About 200 (0.47%) were called active. Roughly 12% stayed inconclusive and do not appear here. Calls come from the whole dose curve; as a rule, active = well fitted cell-killing curve with a large enough effect; inconclusive = small, poorly fitted or top-dose-only effect, or effect the other way; inactive = flat fitted curve, though single readings scatter. The list shows a part of the results.

Test: Cell viability qHTS assay in S16 Pmp22-F2sN cells; note: nearly all actives have a fitted effect of over 65% in size
Conditions: S16 Pmp22-F2sN Schwann cells viability, CellTiter-Glo, 24 h; series mostly up to 57.5 µM; activity change, negative = cytotoxicity: at the top concentration
Procedure, shortened: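 Used to flag compounds lowering reporter output through toxicity, this quantitative HTS measures ATP-based CellTiter-Glo luminescence in S16 Pmp22-F2sN Schwann cells after 24 h compound exposure at 37C.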
% is set by controls: 0 for no effect and ±100 for the full control effect.

| Compound | activity change, negative = cytotoxicity |
| --- | --- |
| COC(=O)c1ccccc1NC(=O)c1cc2cc(C)ccc2n1C | inactive: -16.3% |
| Cc1ccccc1Cn1c2ccccc2c2cnn(CC(=O)NCc3ccccn3)c(=O)c21 | inactive: 16% |
| Cc1ccc(C)c(N2CCN(C(=O)NCc3noc4ccc(C)cc34)CC2)c1 | inactive: -2.03% |
| O=C(NCCc1ccccc1)C1CCC(CNS(=O)(=O)c2ccc(Cl)cc2)CC1 (configuration not stated) | inactive: 18.7% |
| CCc1ccc(-n2nc(CO)c(C(=O)NCCCc3ccccc3)n2)cc1 | inactive: 3.73% |
| Cc1ccc(C)c(S(=O)(=O)c2nnn3c2nc(NC2CCCCC2)c2sccc23)c1 | inactive: -19.2% |
| Cc1ccccc1NC(=O)C(=O)NCC(c1ccc2c(c1)OCO2)N1CCN(c2ccccc2)CC1 (configuration not stated) | inactive: 22% |
| CCOc1ccc(C2C(C(=O)Nc3ccccc3)=C(C)Nc3nc(-c4ccccc4Cl)nn32)cc1OC (configuration not stated) | inactive: -6.35% |
| COc1ccc(CNC(=O)Cn2c(=O)oc3cc(S(=O)(=O)NCc4ccccc4)ccc32)cc1 | inactive: -10.4% |
| CCCN(C(=O)c1cc(S(=O)(=O)N2CCc3ccccc32)cn1C)c1ccc(OCC)cc1 | inactive: -17.6% |
| Cc1ccc(Cl)cc1N1CCN(c2ncnc3c2nc2n3CCCC2)CC1 | inactive: -0.931% |
| CCC(C)NC(=O)c1cc(Sc2cccc(Cl)c2)nc2ccccc12 (configuration not stated) | inactive: 0.822% |
| CCCn1c2ccccc2c2cnn(CC(=O)NCCCN3CCCCC3CC)c(=O)c21 (configuration not stated) | inactive: 1.31% |
| CCOc1ccc(Nc2cc(C)nc3nncn23)cc1 | inactive: 8.86% |
| Cc1ccccc1NC(=O)Cn1cc(S(=O)(=O)c2ccccc2)c(=O)c2ccccc21 | inactive: 10.7% |
| COc1ccc(NC(=O)c2cc3c(-c4ccccc4F)nn(C)c3s2)c(OC)c1 | inactive: -2.06% |
| CCOc1ccc(NC(=O)c2c(C)oc3nc(C)nc(N4CCCC4)c23)cc1 | inactive: -3.72% |
| COc1ccc(CCNC(=O)CCc2cn(Cc3ccccc3Cl)c3ccccc23)c(OC)c1 | inactive: -2.08% |
| Cc1ccc(NC(=O)Cn2c(=O)n(-c3ccc(C)cc3)c(=O)c3c2cnn3C)cc1 | inactive: 18.6% |
| Cc1ccc(Cc2nc3ccccc3nc2SCC(=O)N2CCC(C)CC2)cc1 | inactive: 2.21% |
| Cc1ccc(-n2nc(C)c3c(C)c(CCC(=O)NC(C)c4ccccc4)c(C)nc32)cc1 (configuration not stated) | inactive: 0.854% |
| Fc1ccc(CN2CCc3nc(N4CCN(c5ccccc5F)CC4)ncc3C2)c(F)c1 | inactive: 5.79% |
| CCOc1ccc(-c2cc(NC(=O)c3ccccc3)c(C(=O)OC)s2)cc1 | inactive: 4.96% |
| COc1ccccc1CCNC(=O)c1cccn1-c1nnc(N2CCCC2)s1 | inactive: -1.09% |
| Cc1cc(NC(=O)N2CCC(CN3CCCCCC3)CC2)ccc1Br | inactive: -13.4% |

| Compound | activity change, negative = cytotoxicity |
| --- | --- |
| COc1cccc(NC(=O)c2c(C)nn(-c3cccc(C)c3)c2-n2cccc2)c1 | inactive: -0.265% |
| COc1ccc(N2CCN(C(CNS(=O)(=O)c3ccc(OC)c(C)c3)c3ccco3)CC2)cc1 (configuration not stated) | inactive: -6.36% |
| COc1ccc(C)cc1-n1c(-c2ccc(Cl)cc2)cc2c1CC(C)(C)CC2=O | inactive: -1.36% |
| COc1ccc(-c2nc(Cn3c(=O)cc(C)c4c(C)nn(-c5ccccc5)c43)c(C)o2)cc1OC | inactive: -6.03% |
| Nc1c(C(=O)Nc2ccccc2Br)sc2nc(-c3cccs3)ccc12 | inactive: 20% |
| O=C(CSc1nc2c([nH]c3ccccc32)c(=O)n1-c1ccccc1)Nc1ccc2c(c1)OCO2 | inactive: -6.91% |
| O=S(=O)(c1ccc(Cl)cc1)c1nnn2c1nc(NC1CCCC1)c1sccc12 | inactive: -11% |
| CCC1Sc2ccccc2N(CC(=O)NCc2ccc(C)cc2)C1=O (configuration not stated) | inactive: 1.5% |
| CCn1cc(C(=O)NCCCOC(C)C)c(=O)c2cc(S(=O)(=O)N3CCOCC3)ccc21 | inactive: 6.81% |
| CCc1ccc(OCC2c3cc(OC)c(OC)cc3CCN2C(=O)c2ccc(S(=O)(=O)N3CCCC3)cc2)cc1 (configuration not stated) | inactive: 0.585% |
| COc1ccc(NC(=O)CSc2ncc3c(n2)-c2ccccc2N(Cc2ccc(C)cc2)S3(=O)=O)cc1Cl | inactive: 21.3% |
| Cc1ccc(N(C)C(=O)c2sc3nc4n(c(=O)c3c2C)CCCC4)cc1C | inactive: -8.28% |
| COCCCn1c(=O)c2sccc2n2c(CCCC(=O)NCc3cccc(OC)c3)nnc12 | inactive: 17.6% |
| CCOC(=O)C1CCN(C(=O)c2cc3sc(C)cc3n2C)CC1 | inactive: -1.8% |
| CCOc1ccc(-c2cccc(NS(=O)(=O)c3ccc(C)s3)c2)nn1 | inactive: -1.06% |
| NC(=O)C1CCN(S(=O)(=O)c2cc3c(cc2Cl)NC(=O)CO3)CC1 | inactive: 18.1% |
| CCN1C(=O)c2ccccc2S(=O)(=O)c2ccc(C(=O)NCc3ccccc3)cc21 | inactive: -0.617% |
| O=C(CSc1ncc(-c2ccccc2)[nH]1)Nc1ccccc1 | inactive: 0.981% |
| CCOc1ccc(NS(=O)(=O)c2c(C)nc3sc(C)c(C)n3c2=O)cc1 | inactive: -26.9% |
| CCOC(=O)C1CCN(C(=O)c2ccccc2NC(=O)c2nsc3ccccc23)CC1 | inactive: 1.7% |
| CCOC(=O)C1CCC(CN(Cc2ccc(Cl)cc2)S(=O)(=O)c2cccc(Cl)c2C)CC1 (configuration not stated) | inactive: 1.77% |
| Cc1nc2nc(NC(=O)c3ccc(C(C)(C)C)cc3)[nH]n2c(=O)c1C | inactive: 1.79% |
| CCCCCCC(=O)Nc1ccc2nc3c(=O)n(C)c(=O)n(C)c3nc2c1C | inactive: 7.01% |
| CCCc1cnc2c(c1SCC(=O)NCc1ccc(C)cc1)c(=O)n(C)c(=O)n2C | inactive: -3.5% |
| CCOC(=O)c1ccc(N2C(=O)c3n[nH]c(-c4ccco4)c3C2c2ccc(C(=O)OC)cc2)cc1 (configuration not stated) | inactive: -21.4% |

| Compound | activity change, negative = cytotoxicity |
| --- | --- |
| CC(=O)Nc1cccc(-c2nc(-c3ccccc3)no2)c1 | inactive: -22.3% |
| O=C(c1ccc2c(c1)N(Cc1ccc(Cl)cc1)C(=O)c1ccccc1S2(=O)=O)N1CCCC1 | inactive: 11.9% |
| COC(=O)c1ccccc1NC(=O)[C@H]1O[C@@H]2OC(C)(C)O[C@@H]2[C@H]2OC(C)(C)O[C@H]21 | inactive: 7.19% |
| Cc1cc(C)cc(OCC(=O)Nc2cccc3cccnc23)c1 | inactive: -1.89% |
| CCOc1ccc(CNC(=O)c2oc3c(c2C)-c2nn(Cc4cccc(Cl)c4)cc2CC3)cc1 | inactive: -11.2% |
| COc1ccc(C)c2sc(NC(=O)c3ccc(S(=O)(=O)N(C)C)cc3)nc12 | inactive: 10.2% |
| COc1ccccc1CCNC(=O)Cc1c(C)c2cc(Cl)c(O)cc2oc1=O | inactive: 5.16% |
| CC(C)c1ccc(S(=O)(=O)N2CCN(Cc3cccc(F)c3)CC2)cc1 | inactive: -5.27% |
| CCc1ccc(S(=O)(=O)c2nnn3c2nc(N2CCN(c4ccccc4)CC2)c2cc(Cl)ccc23)cc1 | inactive: 3.59% |
| CCCc1cc(=O)oc2c3c(ccc12)OCN(Cc1ccccc1OC)C3 | inactive: 19.3% |
| CN(C(=O)Cn1nc(Cc2cccnc2)c2ccccc2c1=O)c1cccc(C(F)(F)F)c1 | inactive: 17.8% |
| CCN(CC)C(=O)Cn1c(=O)n(CCCCCC(=O)NCc2ccc3c(c2)OCO3)c(=O)c2sccc21 | inactive: 0.958% |
| O=c1c2sc3ccccc3c2n(Cc2cccc(F)c2)c(=O)n1CCc1ccccc1 | inactive: 15.5% |
| CCC(=O)OCc1cc(=O)n2nc(C3CC3)sc2n1 | inactive: 17.6% |
| Cc1ccc(CNC(=O)c2ccc(N3CCCC3)c(NC(=O)Nc3ccc(C)cc3)c2)cc1 | inactive: -0.255% |
| Cc1ccc(NC(=O)CN2C(=O)COc3ccc(S(=O)(=O)N4CCCCCC4)cc32)c(C)c1 | inactive: -1.77% |
| Cc1ccc(CNC(=O)C(=O)Nc2c3c(nn2-c2ccc(F)cc2)CSC3)cc1 | inactive: -3.32% |
| CC(C)c1cnc2c(c1SCC(=O)NC(C)(C)C)c(=O)n(C)c(=O)n2C | inactive: 19.1% |
| CCOc1ccc(N(C)C(=O)c2oc(=O)c3ccccc3c2-c2ccccc2)cc1 | inactive: -8.95% |
| CCc1ccc(-c2nc(CS(=O)CC(=O)NCCc3ccc(C)cc3)c(C)o2)cc1 (configuration not stated) | inactive: 1.48% |
| Cc1ccc(CN(C(=O)c2ccc(OCC(C)C)cc2)c2ccccn2)o1 | inactive: -0.561% |
| CCn1cc2c(n1)-c1c(oc(C(=O)Nc3ccc(Br)cc3F)c1C)CC2 | inactive: -3.25% |
| O=C(O)CC1c2ccccc2CCN1C(=O)Nc1cc(Cl)ccc1Cl (configuration not stated) | inactive: -5.87% |
| Cc1ccc(N(CC(=O)N2CCN(c3cc(C)ccc3C)CC2)S(=O)(=O)c2c(C)nn(C)c2C)cc1 | inactive: -2.32% |
| COc1ccc(C(=O)c2oc3ccccc3c2NC(=O)c2cccc(OC)c2)cc1 | inactive: 2.07% |

| Compound | activity change, negative = cytotoxicity |
| --- | --- |
| CCOC(=O)c1cc(-c2ccccc2)n(CCCC(=O)Nc2ccccc2C)c1C | inactive: 1.39% |
| CCN(CC)CCOC(=O)c1ccc(Nc2c3c(nc4ccccc24)CCC3)cc1 | inactive: -17.1% |
| COc1ccc(CNC(=O)C(CC(C)C)N2Cc3ccccc3C2=O)cc1 (configuration not stated) | inactive: 6.03% |
| CC(C)CN(CCNC(=O)c1cc(-c2cccs2)nc2ccccc12)CC(C)C | inactive: 7.6% |
| CCN(CC)CCOC(=O)c1ccc(NC(=O)c2cc3c(s2)-c2ccccc2OC3)cc1 | inactive: -3.7% |
| COc1ccc(CNC(=O)c2sc3nc4n(c(=O)c3c2C)CCCCC4)cc1 | inactive: 3.13% |
| CCc1ccc(NC(=O)CN2C(=O)c3ccccc3Sc3ccc(C(=O)N4CCCC4)cc32)cc1 | inactive: 0.0288% |
| Clc1cccc(C2=NC(c3cccs3)=Nc3ccc(Br)cc3N2)c1 | inactive: -16% |
| Cc1nc(-c2ccc(S(=O)(=O)Nc3ccc(Cl)c(C(F)(F)F)c3)cc2)co1 | inactive: 0.334% |
| CCOCCn1cnc2sc(C(=O)Nc3ccccc3C(=O)OC)c(C)c2c1=O | inactive: 28.1% |
| O=C(Cn1ccc2cc(S(=O)(=O)N3CCCCC3)ccc21)NCc1ccccc1Cl | inactive: -15.1% |
| Cn1c(=O)c2c(c3ccccc31)OC(=O)CC2c1cccc(Cl)c1 (configuration not stated) | inactive: -4.42% |
| Cc1ccc(-c2nc(CCNC(=O)C(=O)Nc3c(C)cccc3C)cs2)cc1 | inactive: -1.54% |
| COc1cc(NC(=O)CN2Cc3ccccc3C2=O)cc(OC)c1OC | inactive: -2.15% |
| CCCN(CCC)C(=O)c1nn(C)c2c1CSc1ccc(C)cc1-2 | inactive: -7.44% |
| CC(C)Cn1c(=O)c2ccccc2n2c(CCC(=O)Nc3ccc(F)cc3)nnc12 | inactive: 9.31% |
| CCOc1cccc(CC(=O)N2CCc3c([nH]c4ccccc34)C2c2ccc(SC)cc2)c1OCC (configuration not stated) | inactive: 3.46% |
| CCOc1ccc(NC(=O)Cn2nc(Cc3ccncc3)c3ccccc3c2=O)cc1 | inactive: -3.88% |
| COc1ccc(N2C(=O)CSC23C(=O)N(Cc2ccc(C)cc2)c2ccccc23)cc1Cl (configuration not stated) | inactive: 8.22% |
| COc1ccc(C)cc1NC(=O)c1nnn(-c2c(C)cccc2C)c1C | inactive: -21.7% |
| CC(=O)Nc1nnc2n1CCS2 | inactive: -5.32% |
| Cc1ccc(CN2CCC(CNC(=O)Nc3ccc(C)c(C)c3)C2)cc1 (configuration not stated) | inactive: -24% |
